Measured values published in PMC4336329 (PLoS ONE, 2015).
The whole screen tested about 310,000 compounds, of which about 2,200 (0.71%) showed an effect of 50% or more. The effect is printed as a negative number. The list shows a part of the results.

These compounds were tested against human ether-à-go-go-related gene (hERG) potassium channel (human, UniProt Q12809) (assay: primary screen, population patch clamp on CHO cells stably expressing hERG).
Sequence of human ether-à-go-go-related gene (hERG) potassium channel (Q12809 whole entry, looked up): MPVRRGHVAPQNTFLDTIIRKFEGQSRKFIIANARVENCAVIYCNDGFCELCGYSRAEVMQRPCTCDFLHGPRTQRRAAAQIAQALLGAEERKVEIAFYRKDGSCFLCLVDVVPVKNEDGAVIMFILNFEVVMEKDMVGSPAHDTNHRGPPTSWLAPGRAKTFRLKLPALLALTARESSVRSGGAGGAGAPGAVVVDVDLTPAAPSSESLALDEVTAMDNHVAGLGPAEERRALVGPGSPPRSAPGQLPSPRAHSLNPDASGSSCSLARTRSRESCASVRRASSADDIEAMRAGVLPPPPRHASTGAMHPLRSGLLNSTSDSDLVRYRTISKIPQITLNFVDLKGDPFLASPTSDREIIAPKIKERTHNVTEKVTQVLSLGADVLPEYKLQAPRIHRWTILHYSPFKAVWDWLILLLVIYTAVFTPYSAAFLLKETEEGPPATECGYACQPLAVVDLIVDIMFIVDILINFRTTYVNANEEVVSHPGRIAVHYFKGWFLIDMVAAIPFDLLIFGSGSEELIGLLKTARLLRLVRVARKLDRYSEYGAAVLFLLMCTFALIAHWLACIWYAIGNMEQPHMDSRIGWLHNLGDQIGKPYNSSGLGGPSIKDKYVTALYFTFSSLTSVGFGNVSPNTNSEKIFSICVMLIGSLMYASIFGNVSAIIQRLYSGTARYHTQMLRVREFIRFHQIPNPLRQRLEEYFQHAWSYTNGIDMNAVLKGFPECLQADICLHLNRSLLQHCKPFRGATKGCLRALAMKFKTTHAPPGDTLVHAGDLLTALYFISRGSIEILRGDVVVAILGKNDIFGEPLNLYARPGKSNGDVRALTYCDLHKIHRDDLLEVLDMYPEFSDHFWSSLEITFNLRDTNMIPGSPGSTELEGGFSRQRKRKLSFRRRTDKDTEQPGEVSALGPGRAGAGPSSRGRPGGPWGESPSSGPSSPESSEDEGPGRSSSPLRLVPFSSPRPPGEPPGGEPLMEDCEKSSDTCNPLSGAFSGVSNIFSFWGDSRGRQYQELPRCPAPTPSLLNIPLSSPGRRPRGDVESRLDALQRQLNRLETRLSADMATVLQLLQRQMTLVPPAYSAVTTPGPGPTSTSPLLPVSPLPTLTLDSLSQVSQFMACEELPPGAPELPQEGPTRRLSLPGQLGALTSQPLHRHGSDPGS

Row | Structure (SMILES) | hERG current change (%, negative = inhibition) at 1uM
1 | CCNc1nc(NC(C)C)nc(NS(=O)(=O)c2ccc(N)cc2)n1 | 0.986%
2 | CN(CC1COc2ccccc2O1)C(=S)Nc1ccccc1 (centres unmarked) | -0.26%
3 | Cc1cccc(C(=O)Oc2ccccc2C2C[C@]3(C)CC(=O)NC3N2C(=O)c2cccc(C)c2)c1 (some centres unmarked) | 6.1%
4 | CCCn1nnc(NC(=O)c2ccc(OCC)c(Cl)c2)n1 | 7.81%
5 | CCC1CCC/C1=N\NC(=O)c1ccccc1Cl (centres unmarked) | 4.55%
6 | CCCCC(CC)C1OCC(CN2CCCCC2)O1 (centres unmarked) | 1.44%
7 | CC(=O)[C@@]1(O)CC[C@H]2[C@@H]3CC=C4C[C@@H](O)CC[C@]4(C)[C@H]3CC[C@@]21C | 7.77%
8 | COCCCNC(=O)CSc1nc2c(sc3ccccc32)c(=O)n1CCCC(=O)NCC1CCCO1 (centres unmarked) | -2.49%
9 | S=c1[nH]nc(Nc2cccc3ccccc23)s1 | 14.8%
10 | Cc1ccc(-c2cc(C(=O)N3CCC4(CC3)OCCO4)no2)cc1 | 4.37%
11 | Cc1cc(=O)n2[nH]c(-c3ccsc3-n3c(C)ccc3C)cc2n1 | 5.39%
12 | CN1C(=O)c2ccc(Oc3ccccc3)cc2C1=O | 6.8%
13 | COc1ccc(Nc2cc(C)nc3ncnn23)cc1Cl | 2.06%
14 | NC(=O)c1cc([N+](=O)[O-])ccc1Nc1ccccc1 | 9.96%
15 | O=C(COC(=O)CC1CC2CCC1C2)NC(=O)NC1CCCC1 (centres unmarked) | 8.39%
16 | O=C(NNC(=O)c1ccc(Oc2cc(Cl)cc(Cl)c2)o1)c1ccccc1 | 11.9%
17 | NC(=O)C1CCN(C(=O)CCC(=O)c2ccc(F)cc2)CC1 | 12.7%
18 | O=C(CN1CCOCC1)N1CCCc2ccccc21.O=C(O)C(=O)O | 19%
19 | CCOc1ccc(N=Nc2c(=O)[nH]n3c(C)cc(C)nc23)cc1 | 2.58%
20 | COc1cccc(OC)c1C(=O)N1CCNCC1.O=C(O)C(=O)O | 16.7%
21 | COC(=O)C1=C(C)N(C)C(C)=C(C(=O)OC)C1c1ccccn1 | 7.24%
22 | COc1cc(/C=C/C(=O)OCC(=O)N(C)CC(=O)Nc2ccc(F)cc2)ccc1OC(F)F | -24.2%
23 | Cc1cc(Cl)ccc1OCC(=O)N1CCCCC1 | 11.1%

Row | Structure (SMILES) | hERG current change (%, negative = inhibition) at 1uM
24 | O=C(COC(=O)C1CC1)NC(=O)NCc1ccccc1 | 6.49%
25 | CC(C)OC(=O)CSc1nnc(CNc2ccc(Cl)cc2)n1Cc1ccccc1 | 6.8%
26 | C/C(=C\c1cc2ccccc2o1)C1Nc2cccc3cccc(c23)N1 | 16.2%
27 | Cc1c(Cl)cccc1NC(=O)CNC(=O)Cc1c[nH]c2ccccc12 | 4%
28 | O=C(Nc1cccc(Cl)c1)NC1CC2CCC(C1)N2Cc1ccco1 (centres unmarked) | 11%
29 | Cc1nnc(SCC(=O)Nc2cc(S(=O)(=O)N3CCCC3)ccc2Cl)s1 | 6.9%
30 | Cc1ccccc1CC(=O)Nc1cccc(S(=O)(=O)N2CCCC2)c1 | 5.61%
31 | O=C(O)c1ccc(S(=O)(=O)N(Cc2ccccc2)Cc2ccccc2)cc1 | 14.8%
32 | CC(NC(=O)c1ccco1)C(c1cccs1)N1CCN(c2ccccc2)CC1 (centres unmarked) | 0.732%
33 | COc1ccc(-c2nc3ccc(C(=O)NCCCN4CCOCC4)cc3nc2-c2ccc(OC)cc2)cc1 | 13.9%
34 | Cl.Clc1ccccc1CSC1=NCCCN1 | 6.63%
35 | O=C(O)CCN1C(=O)C2CCCCC2C1=O (centres unmarked) | 8.44%
36 | COc1ccc(C(C)=O)c2c(O)cccc12 | -1.46%
37 | CCC(C)(C(=O)NC1CCCCC1)N(Cc1cccs1)C(=O)c1ccccn1 (centres unmarked) | 10.9%
38 | COc1ccc2oc(C(=O)OCC(=O)Nc3ccccc3OC)c(C)c2c1 | 8.27%
39 | CCCc1nc2nc(C)c(NS(=O)(=O)c3ccc(Cl)cc3)c(=O)n2[nH]1 | 15.2%
40 | CN1CCN(c2ccc(NC(=O)c3ccccc3)cc2)CC1 | 11.5%
41 | CCOC(=O)c1nnc(-c2ccc(C)cc2)nc1N1CCSCC1 | 0.946%
42 | CC1CCN(CCCNC(=O)c2ccc3c(=O)n(Cc4ccc(Cl)cc4)c(=S)[nH]c3c2)CC1 | -2.68%
43 | CCOc1ccccc1Nc1cc(C)nc2ccc(C)cc12 | -20.5%
44 | CCCCc1ccc(NC(=S)Nc2ccc(Nc3ccc(OC)cc3)cc2)cc1 | 10.6%
45 | Cc1nc([N+](=O)[O-])cn1CCCCN1C(=O)c2ccccc2C1=O | 12.2%
46 | CC(=O)CCC(=O)c1ccc2ccccc2c1 | 0.236%

Row | Structure (SMILES) | hERG current change (%, negative = inhibition) at 1uM
47 | N#CC(C(=O)O)=C1CCCC1 | -7.66%
48 | Cc1cc(C)cc(OCc2ccc(C(=O)N3N=C(C(F)F)CC3(O)C(F)F)o2)c1 (centres unmarked) | -0.0387%
49 | c1ccc(-c2cc3ncccc3cn2)cc1 | 15.1%
50 | Cc1cccc(C(=O)Nc2c3c(nn2C(C)(C)C)CS(=O)(=O)C3)c1 | 10.2%
51 | O=C(CC(c1ccccc1)c1cc(Cl)ccc1O)NCCN1CCOCC1 (centres unmarked) | -1.95%
52 | C=CCn1c(O)c(C(C)=NCc2cc(OC)cc(OC)c2)c(=O)[nH]c1=O | 4.32%
53 | Cc1ccc(CSCC(Nc2ccc(C(=O)O)cc2[N+](=O)[O-])C(=O)O)cc1 (centres unmarked) | 4.33%
54 | Cc1ccc(OS(=O)(=O)c2ccccc2)c(/C=N/N=C2\NC(=O)C(C)S2)c1 (centres unmarked) | 6.93%
55 | CC(C)(C)c1ccc(OCC(O)CN2CCOCC2)cc1 (centres unmarked) | 7.24%
56 | COc1cccc(NC(=O)CCC2CCN(C(=O)C3CC=CCC3)CC2)c1 (centres unmarked) | 8.62%
57 | COc1cc(NC(=O)CSCC(=O)N(C)C2CCCCC2)cc(OC)c1 | 12.7%
58 | O=C(Nc1ccccc1F)c1ccc2snnc2c1 | 13.8%
59 | CS(=O)(=O)N1CCN(c2cnn(-c3ccccc3)c(=O)c2Cl)CC1 | 8.33%
60 | Cc1ccccc1C(=O)Nc1cccc(NC(=S)NC(=O)c2cccs2)c1 | 11.6%
61 | Cc1ccc(C(=O)N(CC#N)CC#N)cc1C | 5.95%
62 | O=C(N1CCCCC1)N1CCN(C(c2ccccc2)c2ccccc2)CC1 | 3.73%
63 | CCc1ccccc1OCC(=O)Nc1cccc(S(=O)(=O)NCc2ccco2)c1 | 2.82%
64 | CCOC(=O)c1ccccc1NC(=O)[C@@H]1CCCN1C(=O)OC(C)(C)C | 3.14%
65 | COc1cccc(COC(=O)c2cc(S(=O)(=O)N3CCCCC3)ccc2N2CCOCC2)c1OC | 20.2%
66 | COc1ccc(C(=O)Nc2nc3ccccc3[nH]2)cc1OC | -2.31%
67 | Cc1ccc(S(=O)(=O)NCC(=O)N2CCCC2)cc1 | 6.85%
68 | Cc1ccc(C(=O)NC(=S)Nc2nc(-c3cccc([N+](=O)[O-])c3)cs2)c(Cl)c1 | 7.88%
69 | Cc1nc(SC2CC(=O)N(c3ccccc3)C2=O)n[nH]1 (centres unmarked) | 9.52%

Row | Structure (SMILES) | hERG current change (%, negative = inhibition) at 1uM
70 | CCOc1ccc(C(=O)Nc2nccs2)cc1[N+](=O)[O-] | 8.26%
71 | O=C(CSc1nnc(-c2cccnc2)o1)Nc1ccccn1 | 4.97%
72 | CCOC(=O)c1c(C)n(Cc2ccc(F)cc2)c2ccc(O)cc12 | 3.25%
73 | O=C(CC(c1ccccc1)c1ccccc1)Nc1ncn[nH]1 | 8.62%
74 | Cn1cc(S(=O)(=O)NCc2ccco2)c(=O)n(C)c1=O | -1.91%
75 | CC(C)NC(=O)CCn1c(=S)oc2ccccc21 | 3.63%
76 | Cc1cc(C)cc(NC(=O)N2c3ccccc3NC(=O)CC2C)c1 (centres unmarked) | 10.3%
77 | O=C(CN1CCC(Cc2ccccc2)CC1)Nc1ccc2c(c1)OCCO2 | 4.99%
78 | Cc1[nH]c2ccccc2c1C(=O)C(=O)NCCCn1ccnc1 | 9.93%
79 | Fc1ccc2nc3c(nc2c1)CCCC3 | 6.91%
80 | OCCN=C(c1ccccc1)C12CN3CN(CN(C3)C1)C2 | -8.38%
81 | CC1(C)C2CCC(C2)C1(C)N=C1OC(CCl)CS1 (centres unmarked) | 11.7%
82 | C[C@H](NC(=O)c1ccco1)C(=O)Nc1cccc([N+](=O)[O-])c1 | 9.59%
83 | Cc1oc2c(cc(NS(=O)(=O)c3cccs3)c3ccccc32)c1C(=O)OC(C)C | 10.3%
84 | CCCS(=O)(=O)N1CCN(C2Cc3ccccc3C2)CC1.O=C(O)C(=O)O | 5.42%
85 | COCCNC(=O)CN(c1ccc(C)cc1)S(=O)(=O)c1ccccc1 | 19.4%
86 | COc1ccc(C(=O)C2CCCN(C(=O)c3cc(C4CC4)[nH]n3)C2)c(C)c1 (centres unmarked) | 37.1%
87 | CC(C)=CCc1cc([C@@H]2CC(=O)c3ccc(O)c(CC=C(C)C)c3O2)ccc1O | 10.1%
88 | CCOc1ccc(OCC)c(NS(=O)(=O)c2cn(C)cn2)c1 | 20.4%
89 | O=C1CS/C(=N/N=C/c2ccco2)N1Cc1ccc(F)cc1 | 11.2%
90 | Cc1ccc(S(=O)(=O)Nc2ccc(Br)cc2C(NCC(=O)O)c2ccccc2)cc1 (centres unmarked) | -0.402%
91 | CCOC(=O)CNC(=O)CSc1nnc(NC(=O)c2ccc(C)cc2)s1 | 10.9%
92 | COc1ccc(C(=O)CCS(=O)(=O)c2ccc(C)cc2)cc1 | 8.55%
